Experimental data: PubChem BioAssay AID1347043 (National Center for Advancing Translational Sciences (NCATS), 2019)
Hit rate of the full screen: of about 76,000 compounds, about 1,900 (2.5%) were called active. The shares of active, inactive and inconclusive entries below differ from those in the screen. Calls follow the shape of the dose curve; as a rule, active = well fitted inhibition curve with a large enough effect; inconclusive = small, poorly fitted or top-dose-only effect; inactive = flat fitted curve, though single readings scatter. A potency beside an inconclusive call is a rough fit, not a confirmed value.
% is scaled to controls: 0 for no effect and ±100 for the full control effect; potency is read from the fitted curve at half-maximal effect; tags tell the direction and shape of the fitted curve.
Also: nearly all actives have a fitted effect of over 65% in size.

These compounds were tested against Luciferin 4-monooxygenase (Photinus pyralis) (UniProt P08659) (assay: Firefly luciferase inhibition profiling of diverse chemical library using quantitative high-throughput screening). Conditions: purified P. pyralis luciferase, luminescence, biochemical; series mostly up to 172 µM; activity change, negative = inhibition: at the top concentration.
Chain of UniProt P08659 (P08659 whole entry, looked up): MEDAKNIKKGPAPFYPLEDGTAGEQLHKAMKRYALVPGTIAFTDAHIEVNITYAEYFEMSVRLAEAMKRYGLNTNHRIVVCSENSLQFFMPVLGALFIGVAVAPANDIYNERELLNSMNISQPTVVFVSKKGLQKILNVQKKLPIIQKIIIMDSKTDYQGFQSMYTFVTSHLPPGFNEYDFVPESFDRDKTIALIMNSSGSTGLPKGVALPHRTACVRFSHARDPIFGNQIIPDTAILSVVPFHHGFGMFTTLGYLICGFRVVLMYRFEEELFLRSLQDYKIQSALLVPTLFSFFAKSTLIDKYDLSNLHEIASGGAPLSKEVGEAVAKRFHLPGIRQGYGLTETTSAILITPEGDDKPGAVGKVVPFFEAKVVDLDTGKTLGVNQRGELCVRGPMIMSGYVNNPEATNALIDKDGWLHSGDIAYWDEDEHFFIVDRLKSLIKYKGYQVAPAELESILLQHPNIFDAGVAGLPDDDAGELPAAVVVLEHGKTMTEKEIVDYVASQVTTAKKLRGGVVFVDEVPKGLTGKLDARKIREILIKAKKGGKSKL
In short: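 Purified P. pyralis luciferase (10nM final) in 50mM Tris acetate pH 7.5, 10mM Mg acetate, 0.01% Tween-20, 0.05% BSA with 10uM D-luciferin and 10uM ATP. Compounds titrated qHTS. Luminescence imaged on CCD.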
In the case of `CC(C)CN1CCNc2cc(-c3ccccc3)ncc2C1`, the Potency is reported as active: 3.98 µM. With `O=C(Nc1ccccc1)OC[C@H]1C[C@@H]2CCN1C[C@@H]2c1cc(C2CCCC2)nc(-c2ccncc2)n1` the Potency was inconclusive: 79.4 µM [inhibitor, single point]. For `COc1cc2c(cc1OCc1ccccc1)NC(=O)C21CCN(Cc2cccc(O)c2)CC1`, the Potency was inconclusive: 39.8 µM [inhibitor, partial curve]. `Cn1nc(-c2ccc3ccccc3c2)cc1[C@H]1CN2CC[C@H]1C[C@@H]2CNC(=O)c1cccs1` was tested, and the Potency was inconclusive: 44.7 µM [inhibitor, partial curve]. `CC(C)NC(=O)NC[C@H]1C[C@@H]2CCN1C[C@@H]2CN1CCSCC1` was tested, and the “activity change, negative = inhibition” value was inactive: -5.08%. `O=C(Nc1ccccc1)N1[C@H]2CC[C@@H]1c1cncnc1C2` was tested, and the “activity change, negative = inhibition” value was inactive: -0.96% [at 115 µM]. `COc1cc2c(cc1OCc1ccccc1)NC(=O)C21CCN(CC2CC2)CC1` was tested, and the Potency was inconclusive: 63.1 µM [inhibitor, full curve]. `O=C(Nc1ccccc1)N1C[C@@H]2C[C@H](C1)c1c(-c3cccs3)ccc(=O)n1C2` was tested, and the Potency was inconclusive: 79.4 µM [inhibitor, partial curve]. In the case of `O=C(C1CCC1)N1[C@H]2CC[C@@H]1c1cnc(-c3ccccc3)nc1C2`, the “activity change, negative = inhibition” value is reported as inactive: 4.21% [at 115 µM]. With `C=C[C@H]1CN2CC[C@H]1C[C@@H]2CNC(=O)Nc1cccc(C(F)(F)F)c1` the “activity change, negative = inhibition” value was inactive: 12.6%. In the case of `COc1cc2c(cc1OCc1ccccc1)NC(=O)C21CCN(Cc2nccn2C)CC1`, the Potency is reported as inconclusive: 39.8 µM [inhibitor, partial curve]. With `COc1cc2c(cc1OCc1cccnc1)N(C(=O)Cc1cccc(Cl)c1)CC21CCN(CC(=O)O)CC1` the “activity change, negative = inhibition” value was inactive: 1.56% [at 115 µM]. In the case of `COc1ccccc1-c1cc([C@H]2CN3CC[C@H]2C[C@@H]3COC(=O)Nc2ccc(C(C)C)cc2)nc(C)n1`, the Potency is reported as active: 17.8 µM. `Cc1ncc2c(n1)C[C@@H]1CC[C@H]2N1C(=O)Nc1ccc2c(c1)OCCO2` was tested, and the Potency was active: 31.6 µM. With `CCn1cc(CN2CCN(C(=O)Cc3cccs3)CC2)ccc1=O` the Potency was inconclusive: 56.2 µM [inhibitor, partial curve]. For `COc1cc2c(cc1OCc1ccccc1)NC(=O)C21CCN(C(C)=O)CC1`, the Potency was inconclusive: 70.8 µM [inhibitor, partial curve]. With `COc1ccc(-c2cc([C@H]3CN4CC[C@H]3C[C@@H]4CNC(=O)c3ccc(C(C)(C)C)cc3)n(C)n2)cc1OC` the “activity change, negative = inhibition” value was inactive: 2.57% [at 115 µM]. With `CC(C)(C)c1ccc(NC(=O)OC[C@H]2C[C@@H]3CCN2C[C@@H]3c2cc(C3CCCC3)nc(-c3ccncc3)n2)cc1` the Potency was inconclusive: 44.7 µM [inhibitor, partial curve]. `c1ccc(-c2ncc3c(n2)C[C@@H]2CC[C@H]3N2)cc1` was tested, and the “activity change, negative = inhibition” value was inactive: 11.1% [at 115 µM]. `O=C(c1ccccc1)N1C[C@@H]2C[C@H](C1)c1ccc(-c3ccc(Cl)cc3)c(=O)n1C2` was tested, and the “activity change, negative = inhibition” value was inactive: -6.63%. For `Cn1nc(C2CCCCC2)cc1[C@H]1CN2CC[C@H]1C[C@@H]2CN`, the “activity change, negative = inhibition” value was inactive: -3.36%. With `C=CCN(C)C(=O)[C@H]1CN2CCC1C[C@@H]2Cn1cc(-c2ccc(C(C)(C)C)cc2)nn1` (stereo partly specified) the Potency was inconclusive: 126 µM [inhibitor, partial curve, poor fit]. With `O=C(c1cccs1)N1[C@H]2CC[C@@H]1c1cnc(-c3ccc(F)cc3)nc1C2` the Potency was inconclusive: 50.1 µM [inhibitor, partial curve]. In the case of `CC(C)CN1Cc2ccccc2-n2ccnc2C12CCN(C(=O)c1cccc(F)c1)CC2`, the “activity change, negative = inhibition” value is reported as inactive: -1.66% [at 115 µM]. For `C=C[C@H]1CN2CC[C@H]1C[C@@H]2CNCc1ccc(OC(F)(F)F)cc1`, the “activity change, negative = inhibition” value was inactive: -2.99%. For `CCCNC(=O)OC[C@H]1C[C@@H]2CCN1C[C@@H]2c1cc(-c2ccc(OC)cc2)nn1C`, the “activity change, negative = inhibition” value was inactive: -11.8%. For `Cc1nc(-c2ccco2)cc([C@H]2CN3CC[C@H]2C[C@@H]3CNC(=O)C2CCC2)n1`, the “activity change, negative = inhibition” value was inactive: 2.74%. With `O=c1c(-c2cccs2)ccc2n1C[C@H]1C[C@@H]2CN(Cc2cc3ccccc3o2)C1` the “activity change, negative = inhibition” value was inactive: -4.07%. For `CN1CCN(C(=O)Cc2c[nH]c3ncc(-c4ccsc4)cc23)CC1`, the Potency was inconclusive: 100 µM [inhibitor, partial curve, poor fit]. For `CN(C)C(=O)[C@H]1CN2CCC1C[C@@H]2Cn1cc(CCO)nn1` (stereo partly specified), the “activity change, negative = inhibition” value was inactive: -5.49%. With `O=C1N(c2ccccn2)C[C@H]2CN(Cc3ccc(F)cc3)CCN12` the Potency was active: 25.1 µM.
